Sequences with one replicate were seen in a single cluster, so their values are uncertain.

The test system of the data set is ATP. Put plainly: switch fluorescence ratio, 500 uM ATP over buffer (Cy3 cluster intensity, sum of 5 cycles each) (fold (ratio)); higher = stronger signal-on switching upon ATP binding; sequences stand for … in TCGTCGGCAGCGTCAGATGTGTATAAGAGACAGTTTTTTTTTTTTTTTTTTTTTTTTT…TC. The settings on record: aptamer strand: ATP DNA aptamer (quencher-CACCTGGGGGAGTATTGCGGAGGAAGG + anchor), 100 nM annealed; ATP concentration: 500 uM; one replicate. The method in brief: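 Exposure to 500 uM ATP lasted 15 min at 22 °C before imaging, and a selection-buffer image was taken beforehand, for Cy3-labelled switching-strand clusters on a modified Illumina MiSeq flow-cell annealed to 100 nM quencher-labelled ATP aptamer. Five buffer/ATP cycles were run with NaOH stripping and re-annealing between them. The fluorescence ratio per cluster is summed target-cycle over summed buffer-cycle Cy3 intensity, averaged per switch-domain sequence. Clusters outside 100-1000 RFU were excluded.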
Take GAGCTCCACG: the switch fluorescence ratio is 1. For AAATACGGAG the value was 0.992; for TTCGTACTGC, 1.03. The figure for AGCGTCGCTT is 0.975; for AAGCTTCAT it is 1.16. The figure for GAGAGGAAGA is 1.03. Consider GGTAATAGTT, for which the switch fluorescence ratio is 0.998. The figure for ATCAATATAC is 1.79; for CTTACAATTG it is 1.01. The figure for TCCTAGGTAG is 1.09. The figure for CAGATCTGGG is 1.01; for AAACGTCCCT it is 1.11; for GCGAAAACGG it is 1.01. Regarding TCCATGCTGC, the switch fluorescence ratio is 1.21.

AAGCTCCATC: the switch fluorescence ratio came out at 1.03. The figure for GGCGTTATCA is 0.968; for GTTTTCGGAG it is 1.01. For TTCCTACA the value was 1.01; for CGATAGGTT, 0.996; for AAGAACAGGA, 1.02. For GAGTCAAAGA the value was 0.994. GTCGAATGAA: the switch fluorescence ratio turned out to be 1.02.

Take AAGCTGTATA: the switch fluorescence ratio turned out to be 1.02. The figure for TTTGACACTG is 0.929. For AACTTATACT the value was 1.02; for TAGCCCGAAG, 1.03. The figure for GCTAGGCCGA is 1.02; for AGGGGTCAA it is 0.968. Take GGTAAACACG: the switch fluorescence ratio stood at 1.07. For GAGAGATCCG the value was 0.965. The figure for CGTGCACTTT is 0.961; for CGGCAGCATG it is 1.05; for GCGGATGCC it is 0.98. With ACACGCGGGG, the switch fluorescence ratio is 1.03. For ATCTGTTGGC the value was 1.01; for TGTAGCGGCT, 1.02; for GTTACCCGGT, 0.965.

For the sequence GTTATCGGAA, the switch fluorescence ratio worked out at 1.03. The figure for CTCTTCTAGT is 0.989; for GGGGCACTC it is 1.04. The figure for GATGGAACGA is 1.04; for TGAAAAACAG it is 1.06. The figure for TTTGCCTATT is 1.04.

For AATAGTTCGT, the switch fluorescence ratio is 1. With GTTTTGGCGA, the switch fluorescence ratio stood at 1.01. On to TGGCACCGTT, for which the switch fluorescence ratio is 0.956. Consider GCTTTAATA, for which the switch fluorescence ratio was 0.999. The figure for AAACTAGCCT is 1.18; for TCGATCAGAC it is 1.18; for CGGTGACATT it is 1.05. The figure for TAGTTGTTCG is 1.02; for CGGCACTGGT it is 0.998. The figure for GCAACCTGTT is 1.03; for CCCGGAATTT it is 1.17; for CGGGCGTAAG it is 1.03. For the sequence CCCGATATAA, the switch fluorescence ratio amounted to 1.12. The figure for TCGCCGAGCT is 1.06; for CCCCTGCCTA it is 1.16. For GCGTAACGAG the value was 1.06. As to TCTCATACGC, the switch fluorescence ratio was found to be 1.29. TGATCCAACG: the switch fluorescence ratio turned out to be 0.991.

For the sequence AGTCTACATT, the switch fluorescence ratio stood at 1.04.

ATGATCCACA: the switch fluorescence ratio amounted to 1.05. For CAGATTGGGC the value was 1.04; for AAACGGAACG, 1.1. The figure for GTTGGAACCT is 1.09; for GGAATAGTCA it is 1.06; for ATGTCTCACC it is 0.986. For CCACTCCTTT the value was 1.02; for CAGAAGGAGT, 0.993; for TTTCGGCGTA, 1.05. Consider GACCAGTATG, for which the switch fluorescence ratio worked out at 0.967.

Turning to GCGTGGTTAT, the switch fluorescence ratio stood at 1. For CTCCCCCTTG the value was 4.79; for ACCCTTCCGT, 1.92; for GGCATGGAGA, 1.03. AAGGTTGATC: the switch fluorescence ratio was found to be 0.966.

For the sequence GCATTCTAGC, the switch fluorescence ratio was determined as 0.975.

For TAAAGATCCT, the switch fluorescence ratio was determined as 1.07.

With TGACTGTACG, the switch fluorescence ratio is 1.08. For TTTAGCCACA the value was 0.971; for CAGGCTAGCT, 1.01; for ACCCGATTGT, 1.03. As for AGGTTATGAG, the switch fluorescence ratio was found to be 1.01. The figure for CGGAGCGGAC is 1.01; for GTTCCGGCTA it is 1.1.

For GAACGGGGAG, the switch fluorescence ratio stood at 1.02. For GTGGAGACTC the value was 1.01; for CCGGCGTGCT, 1.06; for AATGAGTAGC, 1.01. For AGATTAGAGA the value was 1.02. The figure for TATAGGGTAG is 1. Turning to GGCTGTTTGT, the switch fluorescence ratio came to 0.929. For GGAACACCGT the value was 0.927. For AGCGGGATTA the value was 0.942.

For TGCAACATGT, the switch fluorescence ratio turned out to be 1. As to GGCTATATAT, the switch fluorescence ratio worked out at 1.02. For AATAGGGAGA the value was 1; for GTTGAGGTGG, 1.26; for CGCCCCTCGC, 1.35. For TCAAGTCAT the value was 1.06; for TGTAGCTCAG, 1.16.

Take CAAGTATTCT: the switch fluorescence ratio is 0.965.

As for TTTGCGCGGT, the switch fluorescence ratio is 1.

For GTCTACATG, the switch fluorescence ratio amounted to 0.982. The figure for CGAGTACCGA is 1.02; for GCTTCTTTGG it is 1.02.

For AGAGGGCTGG, the switch fluorescence ratio was determined as 0.954. On to GTCGATCAGG, for which the switch fluorescence ratio came to 0.995. For ATAACTCAGC the value was 0.999; for TAATTTGTGA, 0.98. For CTTACTGGTC the value was 1.03; for CGGCGTCTGT, 1.01; for GTTGATCGGT, 0.985. For CGTCGACGCA, the switch fluorescence ratio was 1.04. With ACCTAGAAAA, the switch fluorescence ratio is 1.1. TAGATGTGCT: the switch fluorescence ratio is 0.968.

For GTAGACCAGT, the switch fluorescence ratio was 0.991. For TGTCGTAAGC the value was 1; for GCGTTGGGA, 0.985.
